Assay results reported in paper PMC4336329 (PLoS ONE, 2015).
In all, about 310,000 compounds went through this assay and about 2,200 (0.71%) showed an effect of 50% or more. The effect is printed as a negative number. The list shows a part of the results. Where a SMILES comes first, the peptide text is derived from it. The star is where a group is joined. Boc = CC(C)(C)OC(=O)*

Target: human ether-à-go-go-related gene (hERG) potassium channel (human, UniProt Q12809)
Assay: primary screen, population patch clamp on CHO cells stably expressing hERG

Sequence of human ether-à-go-go-related gene (hERG) potassium channel (Q12809 whole entry, looked up): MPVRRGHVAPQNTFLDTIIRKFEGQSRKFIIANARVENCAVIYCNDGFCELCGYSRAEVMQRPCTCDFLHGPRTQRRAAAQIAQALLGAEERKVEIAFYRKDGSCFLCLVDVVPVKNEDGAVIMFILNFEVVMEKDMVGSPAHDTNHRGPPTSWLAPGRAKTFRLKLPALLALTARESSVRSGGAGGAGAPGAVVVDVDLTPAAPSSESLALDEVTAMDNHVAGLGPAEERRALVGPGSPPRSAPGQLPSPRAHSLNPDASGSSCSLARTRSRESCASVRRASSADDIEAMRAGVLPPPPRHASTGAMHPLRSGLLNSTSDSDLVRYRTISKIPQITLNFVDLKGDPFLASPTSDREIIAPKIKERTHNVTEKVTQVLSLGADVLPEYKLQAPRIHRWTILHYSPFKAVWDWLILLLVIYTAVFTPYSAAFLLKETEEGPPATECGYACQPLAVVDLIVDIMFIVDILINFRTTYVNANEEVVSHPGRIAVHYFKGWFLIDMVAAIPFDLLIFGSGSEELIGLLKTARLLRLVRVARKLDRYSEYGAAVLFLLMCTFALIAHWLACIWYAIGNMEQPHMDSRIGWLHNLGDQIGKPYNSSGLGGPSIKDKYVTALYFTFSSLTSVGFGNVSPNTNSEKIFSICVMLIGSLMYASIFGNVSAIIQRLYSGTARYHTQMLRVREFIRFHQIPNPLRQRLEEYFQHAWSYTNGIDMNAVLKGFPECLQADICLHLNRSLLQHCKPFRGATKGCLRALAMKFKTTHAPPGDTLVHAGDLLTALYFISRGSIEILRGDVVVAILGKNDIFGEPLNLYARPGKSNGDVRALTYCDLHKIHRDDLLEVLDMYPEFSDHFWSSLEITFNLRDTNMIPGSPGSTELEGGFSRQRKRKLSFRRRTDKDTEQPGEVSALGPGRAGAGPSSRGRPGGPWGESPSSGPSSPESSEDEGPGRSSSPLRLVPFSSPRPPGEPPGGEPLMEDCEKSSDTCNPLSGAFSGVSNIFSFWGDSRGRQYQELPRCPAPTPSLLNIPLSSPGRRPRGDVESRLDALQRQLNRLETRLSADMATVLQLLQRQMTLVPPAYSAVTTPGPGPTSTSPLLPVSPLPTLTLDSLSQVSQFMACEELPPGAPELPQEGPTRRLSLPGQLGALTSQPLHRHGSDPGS

Row | Compound | hERG current change (%, negative = inhibition) at 1uM
1 | CN(Cc1ccccc1)C(=O)c1ccccc1NC(=O)C1CC1 | -8.94%
2 | Cn1ccnc1SCC(=O)N(C1CCCCC1)C1CCCCC1 | 12.2%
3 | O=C(CCCNS(=O)(=O)c1ccc(F)cc1)Nc1ccc(F)cc1 | 4.86%
4 | COc1ccc(N2C(=O)CC(N3CCC(O)(c4ccc(Br)cc4)CC3)C2=O)cc1 (stereo not drawn) | -8.45%
5 | O=C(c1cnn2c(C(F)F)cc(-c3ccccc3)nc12)N1CCc2ccccc2C1 | 13.3%
6 | COc1ccc(N2CCN(C(=O)CSc3nnc4ncccn34)CC2)cc1 | 1.99%
7 | CC1CCc2c(sc3nn[nH]c(=O)c23)C1 (stereo not drawn) | -9.43%
8 | Cc1ccc(N=C2SC(C(=O)O)CC(=O)N2C)cc1C (stereo not drawn) | 2.88%
9 | CCC(C)C(NC(=O)C(C)NC(=O)CNC(=O)OC(C)(C)C)C(N)=O (stereo not drawn) (Boc-Gly-Ala-Ile-NH2; configuration not given here) | 18.6%
10 | CCOc1ccc(-n2cc(C(=O)N3CCCCCC3)c3cc(OC)c(OC)cc3c2=O)cc1 | 1.47%
11 | Cc1ccc2nc(CCl)[n+]([O-])c(-c3ccccc3)c2c1 | 8.94%
12 | Cn1cccc1Cc1nnc(SCC(=O)Nc2cccc(F)c2)n1-c1ccc(F)cc1 | 4.07%
13 | CCC(C)c1ccccc1NC(=O)c1cc(C)no1 (stereo not drawn) | 16%
14 | Cc1csc(/C(C#N)=N/O)n1 | 7.55%
15 | CCN(CC)S(=O)(=O)c1ccc(N2CCCC2)c(NS(=O)(=O)c2ccccc2)c1 | 1.88%
16 | CC(C)(O)c1nnn(-c2ccccc2)c1C(F)(F)F | 8.02%
17 | Cc1cccc(N2CCN(C(=O)CN3C(=O)C4CC=CCC4C3=O)CC2)c1C (stereo not drawn) | 18.1%
18 | COc1ccc(/C(C)=N/NC(=O)CNC(=O)c2ccncc2)c(OC)c1 | 8.76%
19 | O=C(O)c1c2c(nc3ccccc13)/C(=C/c1c(F)cccc1F)CCC2 | 14.3%
20 | Cc1nc(CCl)cc(=O)[nH]1 | 4.26%
21 | COc1ccc2c(C)cc(N3CCN(Cc4ccccc4)CC3)nc2c1 | 7.13%
22 | O=C(Nc1cccc2c1CCCC2)c1ccc(Cl)c([N+](=O)[O-])c1 | 9.4%
23 | c1ccc(C[C@H]2CN=C(Nc3ccccc3)N2CC2CCC2)cc1 | -4.68%

Row | Compound | hERG current change (%, negative = inhibition) at 1uM
24 | COc1ccc(-n2c(=O)c3c4c(sc3n3c(=S)[nH]nc23)CCC4)cc1 | 9.01%
25 | CCC1(c2ccccc2)NC(=O)N(CC(=O)NCc2ccc(F)cc2)C1=O (stereo not drawn) | 21.7%
26 | Cc1sc2ncnc(N3CCOCC3)c2c1C | -5.93%
27 | O=S(=O)(c1ccc(=S)[nH]c1)N1CCCCCC1 | 11.8%
28 | Cc1c(C(=O)NCc2ccc(F)cc2)oc2ccc(S(=O)(=O)N3CCOCC3)cc12 | 10.1%
29 | Cc1cc(COc2ccccc2O)on1 | 9.61%
30 | O=C(CCc1ccc(S(=O)(=O)NC2CCCCC2)cc1)Nc1ccccc1 | 10.6%
31 | CCOC(=O)c1c(NC(=O)CSc2nnc(-c3c[nH]c4ccccc34)n2CCOC)sc2c1CCCC2 | 15.2%
32 | CCNC(=S)/N=C(/Nc1ccc(OC)cc1)Nc1nc(C)cc(C)n1 | 8.68%
33 | Cc1cc(C)n2cc(CSc3ccc(Cl)cc3)nc2n1 | -19.5%
34 | Cc1cc(OCC(=O)Nc2ccccc2N2CCOCC2)c(C(C)C)cc1Cl | 10.3%
35 | O=C(Cc1ccccc1)NNS(=O)(=O)c1ccc(F)cc1 | 5.14%
36 | CN(C)S(=O)(=O)N(CC(=O)Nc1cccc(F)c1)c1ccccc1 | 3.23%
37 | Cc1nnc(NC(=O)CSc2nnc(CNC(=O)c3ccc(F)cc3)o2)s1 | 12%
38 | O=C(Nc1cc(=O)[nH]c(=O)[nH]1)c1cccc(Br)c1 | 17.4%
39 | O=C(O)c1[nH]c2ccc(Cl)cc2c1CC(=O)N1CCN(C(=O)c2ccco2)CC1 | 12.5%
40 | Cn1c(-c2ccc(CN3CCCCC3)o2)nc2ccccc21 | -3.89%
41 | CCCCSCCCNC(=O)c1cn(C)c2ccc(S(=O)(=O)N3CCCC3)cc2c1=O | 13.3%
42 | O=C(NCCCn1ccnc1)/C(=C\c1ccc(Br)cc1)NC(=O)c1ccccc1F | -81.5%
43 | O=C1CCCc2ccccc2N1Cc1ccc(Cl)cc1Cl | 3.98%
44 | COc1cccc(C2=NOC(C(=O)Nc3cc(C)on3)C2)c1 (stereo not drawn) | 6.07%
45 | Cc1cnc(CN(C)C(=O)C2CCC(=O)N(CCc3cccc(F)c3)C2)[nH]1 (stereo not drawn) | 13.2%
46 | Nc1c(C(O)(C(F)(F)F)C(F)(F)F)cc(C(O)(C(F)(F)F)C(F)(F)F)c2ccccc12 | 13.3%

Row | Compound | hERG current change (%, negative = inhibition) at 1uM
47 | N=c1c2ccccc2nc2n1CCCCCCCCCCC2 | -16.6%
48 | O=C(CC1CC2CCC1C2)Nc1nc(-c2ccccn2)cs1 (stereo not drawn) | 1.24%
49 | c1ccc(C(c2ccccc2)N2CCN(Cc3nnnn3C3CCCCC3)CC2)cc1 | 3.19%
50 | CC(=O)N1c2ccccc2CCc2ccc(N)cc21.Cl | 13.4%
51 | CCCn1c(C)cc(C(=O)COC(=O)c2ccc(Cl)c(S(=O)(=O)N3CCCC3)c2)c1C | 11.1%
52 | Nc1cc(Cl)ccc1N1C(=O)CCC1=O | 11.3%
53 | O=C(c1ccc(S(=O)(=O)c2ccc(Cl)cc2)cc1)N1CCOCC1 | -3.98%
54 | CC1(C)Cc2nc3oc4c(NCc5ccccc5)ncnc4c3cc2CO1 | -5.07%
55 | Cc1cc(O)c(C(=O)/C=C/c2ccccc2Br)c(=O)o1 | 14.3%
56 | COc1ccc(CN2C(=O)c3ccccc3C(/C=N/OCc3ccc(Cl)cc3)C2=O)cc1 (stereo not drawn) | 13.6%
57 | CC(C)Cn1c(-c2csc(C(C)C)c2)n[nH]c1=S | 2.21%
58 | O=C(CCCN1C(=O)CCC1=O)Nc1ccc(Cl)c(C(F)(F)F)c1 | 8.15%
59 | CC(C)CC(=O)Nc1ccc(C(=O)Cn2c(=O)oc3ccccc32)cc1 | 8.72%
60 | CCN(CC#CCC(O)(c1ccccc1)C1CCCC1)C(C)C.Cl (stereo not drawn) | -6.91%
61 | O=C1c2ccccc2S(=O)(=O)N1Cc1ccccc1[N+](=O)[O-] | 12.2%
62 | O=C(CSc1nnc(-c2ccccc2)o1)c1ccc2c(c1)OCCO2 | 11.6%
63 | COc1ccccc1NC(=O)c1ccc(Cl)c(S(=O)(=O)NCc2ccco2)c1 | 9.55%
64 | COC(=O)c1ccccc1NC(=O)C1=CC(c2cccs2)=NS(=O)(=O)N1C | 5.74%
65 | CC(C)c1ccc(/C=N/Nc2cc(N3CCOCC3)nc(N3CCOCC3)n2)cc1 | -8.97%
66 | COc1cc(CNCCN(C)C)c(Br)cc1OCC(=O)NCc1ccccc1 | -7.73%
67 | COCCCNS(=O)(=O)c1ccccc1 | 4.86%
68 | CC(C)C[C@H](NC(=O)c1nc[nH]c1C(=O)NC1CCN(C(=O)OC(C)(C)C)CC1)C(=O)OCc1ccccc1 | 6.18%
69 | Cc1ccc(C(C(=O)NC2CCCCC2)N(CC2CCCO2)C(=O)CNC(=O)c2ccco2)cc1 (stereo not drawn) | -0.612%

Row | Compound | hERG current change (%, negative = inhibition) at 1uM
70 | CCOC(=O)c1c(C)[nH]c(C(=O)COC(=O)COc2ccccc2C=O)c1C | 11.3%
71 | CCOC(=O)c1cccc(NC(=O)CSc2nc3cccnc3n2C)c1 | 2.62%
72 | O=C(/C=C/NNC(=O)c1cccc(Br)c1)c1cccc(Br)c1 | 20.5%
73 | Cc1ccc(C(=O)/C=C/c2ccco2)c(O)c1 | -3.5%
74 | Cc1cc(C)cc(-n2c(C)cc(/C=N\NC(=O)COc3cccc4cccnc34)c2C)c1 | 21.1%
75 | Cc1cc(NC(=O)c2ccc(Cn3nc(C)c(Br)c3C)o2)no1 | 10.4%
76 | CCOc1ccc(OCCCC(=O)NCCOc2ccccc2OC)cc1 | -19%
77 | COc1ccc(S(=O)(=O)N2CCC(C(=O)Nc3cccc(C(C)=O)c3)CC2)cc1C | 9.88%
78 | COC(=O)C(Cc1ccc(OC(=O)c2ccccc2Cl)cc1)N1Cc2ccccc2C1=O (stereo not drawn) | 10.3%
79 | O=C(Nc1ccccc1N1CCCC1)c1ccccc1F | 6.48%
80 | Cc1ccc(SCC(=O)c2ccc[nH]2)cc1 | 7.15%
81 | CCSc1nnc(NC(=O)CSc2nnc(-c3c[nH]c4ccccc34)n2CC)s1 | 13.2%
82 | O=C(Nc1ccc(Br)cc1)N1CCCC(O)C1 (stereo not drawn) | 15.1%
83 | c1ccc(Nc2nnc(SCc3cccc4ccccc34)s2)cc1 | 14.1%
84 | CC(=O)N1CCN(CC(=O)Nc2ccc(C)c(S(=O)(=O)N(C)C)c2)CC1 | 14.7%
85 | CC(Sc1nnc(-c2ccccc2F)n1C1CC1)C(N)=O (stereo not drawn) | 15.2%
86 | O=C(Cn1ccc(NC(=O)OCc2ccccc2)nc1=O)NCc1ccc2[nH]ccc2c1 | 10.8%
87 | Cc1ccc(NC(=O)CCn2cnc3ccccc3c2=O)c(C)c1 | 4.22%
88 | CCOC(=O)c1c(C)[nH]c2cc(Br)c(O)cc12 | 12.7%
89 | O=C(O)C(=O)O.OC(CNC1CCCCCC1)COc1cccc2ccccc12 (stereo not drawn) | 9.67%
90 | COc1cccc(NC(=O)CN2C(=O)COc3ccc(S(=O)(=O)N4CCOCC4)cc32)c1 | 18.9%
